Data: patent publication US5576436A, “Fluorescent ligands” (Pharmaceutical Discovery Corporation, priority 1994, dated 1996)

Target: strychnine-insensitive glycine receptor associated with the N-methyl-D-aspartate complex
Test: Radioligand ([^3 H]5,7DCKA) binding, strychnine-insensitive glycine receptor

Row | Ki (read-out: Radiolig. Kd:Ki, Table I) [nM] | IC50 (read-out: IC50 versus radioligand ([^3 H]5,7DCKA) binding, [^3 H]5,7DCKA) [nM] | activity for the strychnine-insensitive glycine receptor (result in words) | SMILES
1 | 69 |  |  | O=C(NCCCCCCNc1ccc([N+](=O)[O-])c2nonc12)c1cc(O)c2c(Cl)cc(Cl)cc2n1 [PDC 002.083]
2 |  | > 1000 | inactive | O=C(NCCCCCCNC(=O)C1CCCN1c1ccc([N+](=O)[O-])c2nonc12)c1cc(O)c2c(Cl)cc(Cl)cc2n1 (stereo not drawn) [1-(5,7-dichloro-4-hydroxy-2-quinolinecarboxamido 6-aminohexyl-4-(prolyl)-7]
